Here are results for 4 molecules from PubChem BioAssay (NCI).

Test systems include KM12 colon; SR leukemia; K-562 leukemia; CCRF-CEM leukemia; MDA-MB-231 breast; RPMI-8226 leukemia; HCT-116 colon; MCF7 breast; HL-60(TB) leukemia; SN12C renal; HOP-62 NSCLC; SK-OV-3 ovarian; OVCAR-3 ovarian; HS 578T breast; SNB-19 CNS; SF-539 CNS; NCI-H522 lung; OVCAR-8 ovarian; NCI-H226 lung; UACC-62 melanoma; OVCAR-5 ovarian.
Common to all, as to experiment: NCI tumour cell line growth inhibition, 48 h

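Five concentrations, 48 hours, 96-well plates. Here, GI50 denotes the concentration required for 50% inhibition of growth.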 For part of its entries the source gives two or more results. They are shown here; other results are not. The source may hold further records. For some assays here: The values listed for one entry are repeated measurements in other runs, samples, wells, individuals or studies. Marks in square brackets tell the records apart. The letters are not those of the source and start again with each entry.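 TGI marks complete inhibition of growth.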 For some assays here: Records of one sample usually come from different ranges of test concentrations, not given here; some values may only mark the edge of a range. *1 amine or outer side, *2 acyl side, *3 side chain or, on linkers, in order; H or OH if unused. Where a SMILES comes first, the peptide text is derived from it. Bridges are numbered along the chain shown (N, C = ends). [ ]: non-standard residue; d: D form. ξ: configuration not given here. X4 = CCC(C)C(N[*:1])C(O)CC(=O)O[C@H](C(=O)C(C)C(=O)[*:2])C(C)C; NMeY = CN[C@@H](Cc1ccc(O)cc1)C(=O)O; X3 = O=C([C@@H]1CC(O)CN1[*:1])[*:2]; ξNMeL = CNC(CC(C)C)C(=O)O; ξT = CC(O)C(N)C(=O)O

As to `COc1cc(N2CCC(N(C)C)CC2)ccc1Nc1ncc(Cl)c(Nc2ccccc2P(C)(C)=O)n1`, the GI50 with KM12 colon is 2.93 µM [sample A, mean of 2 tests] and 128 nM [sample B, mean of 2 tests]; with K-562 leukemia, 3.32 µM [sample A, mean of 2 tests] and 269 nM [sample B, mean of 2 tests]; in the test with CCRF-CEM leukemia, 3.27 µM [sample A, mean of 2 tests] and 238 nM [sample B, mean of 2 tests]. Also, in the test with SR leukemia, the TGI was > 28.5 µM [sample A, mean of 2 tests] and 2.37 µM [sample B, 1 test].
`CCC(C)C1NC(=O)C(NC(=O)C(CC(C)C)N(C)C(=O)[C@@H]2CC(O)CN2)C(C)OC(=O)[C@H](Cc2ccc(OC)cc2)N(C)C(=O)[C@@H]2CCCN2C(=O)[C@H](CC(C)C)NC(=O)C(C)C(=O)[C@H](C(C)C)OC(=O)CC1O` (stereo partly drawn) (H-[X3][ξNMeL][ξT][X4]LP[NMeY](Me); ester 3-C): the TGI is 160 nM and 2.47 µM in the test on MDA-MB-231 breast; 90.1 nM and > 100 µM in the test with RPMI-8226 leukemia; 111 nM and 1.82 µM in the test with HCT-116 colon; 166 nM and > 100 µM in the test on MCF7 breast; 104 nM and > 100 µM with HL-60(TB) leukemia; 415 nM and 35 nM with CCRF-CEM leukemia.
As for `COC(=O)/C=C/c1cc(OC)c2c(c1)C(C(=O)OC)C(c1ccc(OC)c(OC)c1)O2` (stereo not drawn), the GI50 in the test on SN12C renal is > 100 µM [sample A, 1 test] and 6.5 µM [sample B, mean of 2 tests]; in the test on HOP-62 NSCLC it was > 100 µM [sample A, 1 test] and 6.46 µM [sample B, mean of 2 tests]; with SK-OV-3 ovarian, > 100 µM [sample A, 1 test] and 5.5 µM [sample B, mean of 2 tests]; in the test on OVCAR-3 ovarian, > 100 µM [sample A, 1 test] and 2.29 µM [sample B, mean of 2 tests]; in the test with SNB-19 CNS, > 100 µM [sample A, 1 test] and 2.09 µM [sample B, mean of 2 tests]; with SF-539 CNS, > 100 µM [sample A, 1 test] and 1.82 µM [sample B, mean of 2 tests]. The GI50 with NCI-H522 lung is > 100 µM [sample A, 1 test] and 3.8 µM [sample B, mean of 2 tests]; in the test with OVCAR-8 ovarian, > 100 µM [sample A, 1 test] and 6.28 µM [sample B, mean of 2 tests]; with NCI-H226 lung it was > 100 µM [sample A, 1 test] and 2.86 µM [sample B, mean of 2 tests]. In addition, the TGI with HS 578T breast is > 100 µM [sample A, 1 test] and 5.96 µM [sample B, 1 test]; in the test on SF-539 CNS, > 100 µM [sample A, 1 test] and 7.12 µM [sample B, mean of 2 tests].
For `Cn1cnc2c(F)c(Nc3ccc(Br)cc3Cl)c(C(=O)NOCCO)cc21`, the TGI in the test with UACC-62 melanoma was > 20.1 µM [sample A, mean of 3 tests] and 188 nM [sample B, 1 test]. In addition, the GI50 with OVCAR-5 ovarian is 765 nM [sample A, mean of 3 tests] and 32.3 nM [sample B, mean of 2 tests].
